Measurements reported in PubChem BioAssay AID686970 (National Center for Advancing Translational Sciences (NCATS), 2013).
“And” between values parts separate entries of the source, which are not always exact repeats. Identical values can stand only once. Hit rate of the full screen: of about 360,000 compounds, about 6,000 (1.7%) were called active. Inconclusive results, whose numbers are uncertain, are shown with a selection of clear calls. The call rests on the fitted dose curve; in most records, active means well fitted cell-killing curve with a large enough effect; inconclusive means small, poorly fitted or top-dose-only effect, or effect the other way; inactive means flat fitted curve, though single readings scatter. Where the call is inconclusive, the potency comes from a doubtful curve fit.

Assay: qHTS for induction of synthetic lethality in tumor cells producing 2HG: qHTS for the HT-1080-NT fibrosarcoma cell line;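 further: NT is the 2HG producing partner of a matched IDH1 knockdown line; nearly all actives have a fitted effect of over 55% in size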;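 on activity, negative = less viability: 0% = DMSO-treated cells and -100% = media-only wells without cells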
Conditions: HT-1080-NT fibrosarcoma viability, CellTiter-Glo ATP luminescence, 48 h; activity, negative = less viability: at 46.1 µM (top of the series) unless noted
Procedure, shortened: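 Compounds were tested in concentration-response format on HT-1080-NT cells for 48 hours at 37 degrees C. Cell viability came from CellTiter-Glo luminescence; curves were classified by r2, response magnitude and activity.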
Potency means the concentration at half of the fitted maximal effect; tags describe the fitted curve by direction and shape.

SMILES	Potency	activity, negative = less viability
O=C(N/N=C/c1cc(O)ccc1Br)c1cccnc1	inconclusive: 2.59 µM [cytotoxic, full curve]	–
N/C(=N/OC(=O)c1ccccc1Cl)c1nonc1N	inconclusive: 0.291 µM [rising, full curve, poor fit]	–
O=C(CSc1nccc(=O)[nH]1)Nc1ccc(F)c([N+](=O)[O-])c1	inactive	–
COc1cc(NC(=O)C2CC(=O)N(Cc3ccco3)C2)c(OC)cc1Cl (stereo not given)	inactive	–
CCOc1ccc2nc(N(CCCN(C)C)C(=O)c3ccc4c(c3)CCCC4)sc2c1	active: 18.4 µM	–
COc1cc(OC)nc(Nc2nc(C(N)c3ccccc3Cl)cs2)n1 (stereo not given)	–	inconclusive: -55.8%
Cc1ccc(NS(=O)(=O)c2cc(NC(=O)c3ccc4c(c3)NC(=O)CS4)ccc2Cl)c(C)c1	inconclusive: 29.1 µM [cytotoxic, single point]	–
O=C(NCCNCCO)c1c(O)c2cccc3c2n(c1=O)CCC3	inconclusive: 25.9 µM [cytotoxic, single point]	–
Cc1ccc(NC(=O)CSc2nc(-c3ccco3)nc3cc(=O)[nH]n23)c(Cl)c1	inconclusive: 29.1 µM [cytotoxic, single point]	–
COc1ccccc1-c1cc(C(F)(F)F)nc(S(=O)(=O)CCCC(=O)O)n1	active: 11.2 µM	–
Cc1cccc(NC(=O)CSc2nnc(Cc3ccccc3)o2)c1	inactive	–
CC1(C(=O)NCc2ccccc2)Cc2c(-c3cccc(C(F)(F)F)c3)ccnc2O1 (stereo not given)	inconclusive: 4.11 µM [cytotoxic, full curve]	–
CC(C)(C)c1ccc(NC(=O)NCc2ccco2)cc1	inconclusive: 35.5 µM [cytotoxic, single point]	–
c1ccc(OCCNc2nc(NCC3CC3)nc3cc(-c4ccccc4)sc23)cc1	active: 14.6 µM	–
COc1ccc(Cl)cc1NC(=O)NC1CCCCC1	inactive	–
CCOC(=O)c1c(C)c(C(=O)Nc2ccc3c(c2)OCCO3)c(C)n1CC	inconclusive: 25.1 µM [cytotoxic, single point]	–
COc1ccc(/C=N/OCC(=O)N2CCCC2)c(OC)c1	inactive	–
CCCOc1ccc(C(=O)NNC(=S)NC(=O)c2cc(-c3ccccc3)nc3ccccc23)cc1	–	inconclusive: -31.7% [cytotoxic]
O=C(NCc1ccco1)/C(=C/C=C/c1ccccc1)NC(=O)c1ccco1	inactive	–
CCC(C)NCCCCOc1ccc(Cl)cc1C (stereo not given)	inconclusive: 29.1 µM [cytotoxic, single point]	–
Cc1c(Cl)cccc1NC(=O)COC(=O)c1c2c(nc3ccccc13)CCN(Cc1ccccc1)C2	inconclusive: 29.1 µM [cytotoxic, single point]	–
CC(=O)Nc1ccc(C=C(C#N)c2ccc(C)cc2)cc1	inactive	–
Oc1ccccc1-c1nc(NCC2CCCO2)c2ccccc2n1 (stereo not given)	inconclusive: 23.1 µM [cytotoxic, partial curve]	–
Cc1c([N+](=O)[O-])cnc(Sc2ccccc2)c1[N+](=O)[O-]	inconclusive: 20.6 µM [cytotoxic, single point]	–

SMILES	Potency	activity, negative = less viability
COC(=O)C(c1ccccc1)N(Cc1cccc(CN(C(C(=O)OC)c2ccccc2)S(C)(=O)=O)c1)S(C)(=O)=O (stereo not given)	inactive	–
CC(=O)Nc1ccc(/C(C)=N/Nc2nc(Nc3cccc4ccccc34)nc(N3CCOCC3)n2)cc1	inconclusive: 7.31 µM [cytotoxic, partial curve]	–
CC(C)OC(=O)c1ccc(NCc2cc(O)ccc2O)cc1	active: 20.6 µM	–
CCc1ccccc1S(=O)(=O)Cc1ccc(C(=O)N2CCN(c3ccccc3OC)CC2)o1	inconclusive: 29.1 µM [cytotoxic, single point]	–
CCOc1ccc(CCN2C(=O)C(=O)N([C@@H](CC(C)C)CN3CCC[C@H]3CN3C(=O)C(=O)NC[C@@H]3Cc3ccccc3)C[C@@H]2Cc2ccc(O)cc2)cc1	inconclusive: 29.1 µM [cytotoxic, single point]	–
O=C(CSc1ccccc1)Nc1nnc(/C=C/c2ccccc2)s1	active: 23.1 µM	–
CCN(CC)c1ccc(C(=C2C=CC(=[N+](CC)CC)C=C2)c2ccc(N(CC)CC)cc2)cc1	active: 7.31 µM	–
O=C(CN1CCN(c2ccccn2)CC1)N(c1ccccc1)c1ccc2ccccc2c1	inactive	–
COc1ccccc1C(C)Nc1nc(-c2cccnc2)nc2ccccc12 (stereo not given)	inconclusive: 29.1 µM [cytotoxic, single point]	–
Cn1cccc1/C=N/n1c(-c2ccc(Cl)cc2)n[nH]c1=S	inconclusive: 23.1 µM [cytotoxic, single point]	–
O=C(Nc1cccc(Cl)c1)c1nc[nH]c1C(=O)NCCN(CCNC(=O)c1[nH]cnc1C(=O)Nc1cccc(Cl)c1)CCNC(=O)c1[nH]cnc1C(=O)Nc1cccc(Cl)c1	inconclusive: 29.1 µM [rising, single point]	–
CC(C)(C)C(=O)NC(=S)NNC(=O)c1ccc(Cl)cc1Cl	active: 9.2 µM	–
Clc1cccc(CNc2ccn3nc(-c4cccc(Cl)c4)cc3n2)c1	inconclusive: 29.1 µM [cytotoxic, single point]	–
c1cn2c(NC3CCCCC3)c(-c3ccc(SC4CCCCC4)cc3)nc2cn1	inactive and inconclusive: 29.6 µM [cytotoxic, single point]	–
CCOC(=O)c1c(CSc2ccccc2)n(C)c2cc(Br)c(O)c(CN(C)C)c12	inconclusive: 29.1 µM [cytotoxic, single point]	–
O=C1NC(Cc2ccccc2)c2nc3cc(F)c(F)cc3c(=O)n2-c2cc3ccccc3cc21 (stereo not given)	inconclusive: 13 µM [cytotoxic, partial curve]	–
CCCn1cnc2scc(-c3ccc(C)c(C)c3)c2c1=O	inactive	–
COc1ccc2c3c(cccc13)C(=O)CC2	inconclusive: 18.4 µM [cytotoxic, partial curve]	–
CC(O)(c1cccc(F)c1)c1nc(-c2csc3ccccc23)cs1 (stereo not given)	inconclusive: 29.1 µM [cytotoxic, single point]	–
CCCCNC(=O)c1nn2c(C(F)(F)F)cc(-c3ccccc3)nc2c1Br	inactive	–
Cc1ccc(Nc2cc(C)nc(NCc3ccccc3)n2)cc1	active: 20.6 µM	–
COc1c2c(cc3c1C(CC(O)Cc1ccccc1)N(C)CC3)OCO2 (stereo not given)	inactive	–
Cc1nc2c(OCC(=O)C(C)(C)C)cccn2c1N(C)Cc1cccs1	inconclusive: 23.1 µM [cytotoxic, single point]	–
Cn1c(O)c(/C=N/NC(=O)c2cc3ccccc3cc2O)c2ccccc21	active: 16.4 µM	–

SMILES	Potency	activity, negative = less viability
COc1ccc(-c2cc(C3CCN(c4cc(Cl)nc(N)n4)CC3)[nH]n2)cc1	inconclusive: 22.4 µM [cytotoxic, single point]	–
COCCNC(=O)C1(C)CCCN(C(=O)COc2ccccc2)C1 (stereo not given)	inconclusive: 29.1 µM [rising, single point]	–
CCN1CCc2c(OCC(=O)N3N=C(c4cccs4)CC3c3ccc(F)cc3)cccc2C1=O (stereo not given)	inconclusive: 16.4 µM [cytotoxic, single point]	–
Cc1cnc(NC(=O)CSc2ncc(-c3ccccc3)n2Cc2ccco2)s1	inconclusive: 29.1 µM [cytotoxic, single point]	–
O=C(NNC(=S)Nc1cccc(Cl)c1)c1ccccc1OC(F)F	inconclusive: 29.1 µM [cytotoxic, single point]	–
COc1ccc(-c2sc3ccc(OC)cc3c2C#Cc2cncn2C)cc1	inconclusive: 23.1 µM [cytotoxic, single point]	–
CCOc1ccc(-c2cc(C(=O)N3CCN(c4ccccn4)CC3)c3ccccc3n2)cc1	inconclusive: 35.5 µM [cytotoxic, single point]	–
CCN(CC)CCNC(=O)c1cc2c(-c3cccc(OC)c3)nn(C)c2s1	inconclusive: 29.1 µM [cytotoxic, single point]	–
Cc1cccc(C)c1NC(=O)CCCSc1nnc(-c2ccc(Cl)cc2)n1-c1ccccc1	inactive	–
Cc1onc(-c2ccccc2)c1C(=O)O/N=C(\N)c1ccc([N+](=O)[O-])o1	inconclusive: 23.1 µM [cytotoxic, partial curve]	–
CC(/C=C/c1ccccc1)=N\Nc1nc(-c2ccccc2)cs1	inconclusive: 20 µM [cytotoxic, single point]	–
CN1CCCCC1CCN1c2ccccc2Sc2ccc(S(C)=O)cc21 (stereo not given)	inconclusive: 18.4 µM [cytotoxic, partial curve]	–
Oc1ccccc1C=NNC(=S)Nc1ccc(F)cc1	inconclusive: 29.1 µM [cytotoxic, single point]	–
COc1ccc(N=C2SC(CC(=O)Nc3cccc(Cl)c3)C(=O)N2Cc2ccco2)cc1 (stereo not given)	inconclusive: 14.6 µM [cytotoxic, partial curve]	–
CC1(C(=O)NS(=O)(=O)c2ccc(F)cc2F)CCN1C(=O)c1ccccc1 (stereo not given)	inactive	–
COC(=O)C1=C(N)Oc2cc(C)n(Cc3ccccc3)c(=O)c2C1c1ccccc1 (stereo not given)	inactive	–
COc1ccc(Cl)cc1NC(=O)CCN1CCN(C)CC1	inactive	–
Cc1ccc(-c2nc(NC(=O)c3nn(C)cc3[N+](=O)[O-])sc2C)cc1	active: 5.8 µM	–
CCOP(=O)(OCC)c1nc(-c2ccc(Cl)cc2Cl)oc1N1CCCCC1	active: 18.4 µM	–
Cc1ccc2cc(C)c(SCC(=O)NCc3ccco3)nc2c1	inactive	–
CC(C)c1ccc2c(c1)c(SC(C)(C)C)c(CC(C)(C)C(=O)O)n2Cc1ccc(Cl)cc1	active: 13 µM	–
Cc1nn(-c2ccccc2)c(Cl)c1/C=N/NC(=O)c1ccccc1NS(=O)(=O)c1cccs1	inconclusive: 18.4 µM [cytotoxic, single point]	–
